SMILES strings stand for the structures. About 2,200 (0.71%) of roughly 310,000 compounds showed an effect of 50% or more. Effects have a minus sign here. The list shows a part of the results.

Experimental findings from publication PMC4336329 (PLoS ONE, 2015) are described below.

The target of the assay is human ether-à-go-go-related gene (hERG) potassium channel (human, UniProt Q12809). The assay is described as follows: primary screen, population patch clamp on CHO cells stably expressing hERG.
Chain of human ether-à-go-go-related gene (hERG) potassium channel (Q12809 whole entry, looked up): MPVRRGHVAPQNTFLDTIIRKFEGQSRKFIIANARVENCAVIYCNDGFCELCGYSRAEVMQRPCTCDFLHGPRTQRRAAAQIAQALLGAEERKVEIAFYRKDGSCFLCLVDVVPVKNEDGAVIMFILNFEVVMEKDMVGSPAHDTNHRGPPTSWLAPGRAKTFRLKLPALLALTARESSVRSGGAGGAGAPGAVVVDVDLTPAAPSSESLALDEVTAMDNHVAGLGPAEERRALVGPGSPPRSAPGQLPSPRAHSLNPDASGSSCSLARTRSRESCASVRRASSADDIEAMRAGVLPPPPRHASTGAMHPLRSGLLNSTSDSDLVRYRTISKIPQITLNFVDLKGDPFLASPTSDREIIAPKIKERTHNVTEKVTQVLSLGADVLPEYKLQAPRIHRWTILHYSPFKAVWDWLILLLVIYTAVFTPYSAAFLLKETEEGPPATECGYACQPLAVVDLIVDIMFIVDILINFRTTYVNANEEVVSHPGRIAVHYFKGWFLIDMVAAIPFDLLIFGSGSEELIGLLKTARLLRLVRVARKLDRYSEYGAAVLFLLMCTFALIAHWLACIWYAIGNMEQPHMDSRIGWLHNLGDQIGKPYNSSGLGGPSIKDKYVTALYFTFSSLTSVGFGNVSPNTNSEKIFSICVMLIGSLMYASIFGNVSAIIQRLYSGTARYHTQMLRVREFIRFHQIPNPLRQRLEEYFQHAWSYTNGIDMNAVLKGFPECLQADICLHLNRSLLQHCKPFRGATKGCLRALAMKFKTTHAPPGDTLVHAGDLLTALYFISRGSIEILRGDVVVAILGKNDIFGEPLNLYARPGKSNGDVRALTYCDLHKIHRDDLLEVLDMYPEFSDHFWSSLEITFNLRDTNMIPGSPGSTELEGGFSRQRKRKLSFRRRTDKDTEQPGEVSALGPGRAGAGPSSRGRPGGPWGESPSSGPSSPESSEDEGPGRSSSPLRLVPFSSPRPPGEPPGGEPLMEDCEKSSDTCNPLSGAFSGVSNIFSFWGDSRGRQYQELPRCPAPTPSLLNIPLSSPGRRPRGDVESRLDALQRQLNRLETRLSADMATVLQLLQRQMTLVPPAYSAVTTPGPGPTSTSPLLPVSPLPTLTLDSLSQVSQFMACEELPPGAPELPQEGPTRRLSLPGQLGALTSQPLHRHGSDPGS
Regarding `Cc1ccc(C)c(N2CCN(S(=O)(=O)c3c(C)[nH]c(C)c3C(=O)N3CCCCC3)CC2)c1`, the “hERG current change (%, negative = inhibition) at 1uM” value is on record as 6.85%.
As to `CC(C)CCNC(=O)c1ccccc1SCC(=O)NC1CCCCCCC1`, the “hERG current change (%, negative = inhibition) at 1uM” value stood at 9.06%.
To `COc1ccc(C)cc1S(=O)(=O)N1CCOCC1` belongs 10.7%; to `CCN(C(N)=S)c1ccccc1`, 5.53%; to `CN(C(=O)COC(=O)COc1ccc2ccccc2c1)c1c(N)n(Cc2ccccc2)c(=O)[nH]c1=O`, 12.1%.
Turning to `CCOc1ccc(NC(=O)CNC(=O)c2ccc([N+](=O)[O-])cc2)cc1`, the “hERG current change (%, negative = inhibition) at 1uM” value is 5.93%.
In the case of `CCC(=O)c1c(NC(C)C)cc(C)oc1=O`, the “hERG current change (%, negative = inhibition) at 1uM” value was 6.59%.
Turning to `CCCCN(C(=O)c1ccc(Cl)c([N+](=O)[O-])c1)c1c(N)n(CCC)c(=O)[nH]c1=O`, the “hERG current change (%, negative = inhibition) at 1uM” value was found to be 7.07%.
As to `C/C(=N/NC(=O)CSc1ccccn1)c1ccc([N+](=O)[O-])cc1`, the “hERG current change (%, negative = inhibition) at 1uM” value was -7.02%.
On to `C=CCOc1ccc(C2/C(=C(\O)c3ccc4c(c3)CC(C)O4)C(=O)C(=O)N2CCN2CCOCC2)cc1OCC` (stereo not shown), for which the “hERG current change (%, negative = inhibition) at 1uM” value was 17.6%.
Turning to `CCOC(=O)COc1c(C=O)cc(Br)cc1OC`, the “hERG current change (%, negative = inhibition) at 1uM” value was -6.13%.
For `CC(C)(C)[C@H]1C=C(C(=O)NCc2nc3ccccc3[nH]2)O[C@@H](OCc2ccc(CO)cc2)C1`, the “hERG current change (%, negative = inhibition) at 1uM” value stood at 5.49%.
In the case of `CCOC(=O)c1cccc(NC(=O)CCS(=O)(=O)c2ccc(Br)s2)c1`, the “hERG current change (%, negative = inhibition) at 1uM” value came to 10.1%.
On to `COc1cccc(NC(=O)CC(=O)c2ccccc2)c1`, for which the “hERG current change (%, negative = inhibition) at 1uM” value is 12.5%.
As for `Cc1ccc2nc(C3CCCN(C(=S)Nc4ccccc4C)C3)[nH]c2c1` (stereo not shown), the “hERG current change (%, negative = inhibition) at 1uM” value is 0.196%.
In the case of `COc1ccc(S(=O)(=O)Cc2ccc(C(=O)NC3CCC(C)CC3)o2)cc1` (stereo not shown), the “hERG current change (%, negative = inhibition) at 1uM” value worked out at 4.35%.
Regarding `CCO[C@@H]1OC(C(=O)O)=C[C@H](C2CC2)[C@H]1CCCO`, the “hERG current change (%, negative = inhibition) at 1uM” value came out at 8.23%.
`NC(=O)CC(NC(=O)Cc1cccc2ccccc12)c1ccc(NCCCN2CCCC2=O)c([N+](=O)[O-])c1` (stereo not shown): the “hERG current change (%, negative = inhibition) at 1uM” value is given as 8.49%.
With `CN(CC(=O)Nc1ccc(OC(F)(F)F)cc1)C(=O)Cn1c(=O)cnc2ccccc21`, the “hERG current change (%, negative = inhibition) at 1uM” value was -9.89%.
Consider `COc1ccc(N(CC(=O)N2CCN(c3cccc(C)c3)C(C)C2)S(=O)(=O)c2c(C)n[nH]c2C)cc1` (stereo not shown), for which the “hERG current change (%, negative = inhibition) at 1uM” value came out at 0.55%.
Take `O=C(CN1CCN(c2ccccn2)CC1)NC(=O)NC1CCCCC1`: the “hERG current change (%, negative = inhibition) at 1uM” value turned out to be 10.2%.
For `O=C(/C=C/c1nc2ccccc2s1)N1CCCCCC1`, the “hERG current change (%, negative = inhibition) at 1uM” value was 5.56%.
For the compound `CCc1ccccc1NC(=O)CNC(=O)c1ccc(-n2cncn2)c([N+](=O)[O-])c1`, the “hERG current change (%, negative = inhibition) at 1uM” value is listed as 13.6%.
To `COCCCNC(=O)CNC(=S)N(Cc1cc(OC)c(OC)c(OC)c1)C1CCCC1` belongs 9.27%; to `O=C(Nc1c(C(=O)N2CCOCC2)oc2ccccc12)c1ccccc1Cl`, 8.34%; to `NC(=O)c1cc(S(=O)(=O)N2CCCCC2)cs1`, 19.8%.
As to `CC(=O)Nc1ccc(C2(c3ccc(NC(C)=O)cc3)NC(=O)c3ccccc32)cc1`, the “hERG current change (%, negative = inhibition) at 1uM” value stood at 12.1%.
Take `O=C1NCCN1C(=O)c1ccccc1F`: the “hERG current change (%, negative = inhibition) at 1uM” value turned out to be 9.39%.
Regarding `CC(C)N(C(=O)CN1CCN(C(=O)C2COc3ccccc3O2)CC1)C(C)C` (stereo not shown), the “hERG current change (%, negative = inhibition) at 1uM” value was found to be 11%.
To `CNC(=O)COc1coc(CN2CCN(c3ccc(OC)cc3)CC2)cc1=O` belongs 7.69%; to `Cn1c(=NC(=O)C2CCN(S(=O)(=O)c3cccs3)CC2)sc2ccccc21`, 8.29%.
On to `CCOC(=O)c1c(C)nn(-c2ccc(NC(=O)CSCC(=O)O)cc2)c1C`, for which the “hERG current change (%, negative = inhibition) at 1uM” value was determined as 14.3%.
As for `COC(=O)c1ccc(NC(=S)NCCCn2ccnc2)cc1`, the “hERG current change (%, negative = inhibition) at 1uM” value is given as 16.8%.
To `c1ccc(N2CCN(Cc3nc4ccccc4[nH]3)CC2)nc1` belongs 10.6%; to `COc1ccc(Cn2nnnc2CN2CCCCCC2)cc1`, 19.6%; to `OC1CCCN(CC(O)COC(c2ccccc2)c2ccccc2)C1` (stereo not shown), 1.02%.
To `COC(=O)n1c(=O)oc2cc(S(=O)(=O)N3CCCCC3)ccc21` belongs -6.58%; to `CCOc1c(Nc2cccc(Cl)c2)c(=O)c1=O`, 9.31%; to `Cc1ccc(S(=O)(=O)N2CCN(C(=O)CSc3cc(C)ccc3C)CC2)c(C)c1`, 9.17%.
To `COc1cc2[nH]c(=O)n(CCCCCC(=O)NCCCN3CCOCC3)c(=O)c2cc1OC` belongs 5.05%.
On to `CNC(=S)N/N=C(\C)c1ccc2c(c1)OCCO2`, for which the “hERG current change (%, negative = inhibition) at 1uM” value is on record as 12.9%.
As for `COCCn1cnc2cc(C)c(C)cc21`, the “hERG current change (%, negative = inhibition) at 1uM” value came to 5.67%.
For the compound `C=CCNC(=S)Nc1ccc2nsnc2c1`, the “hERG current change (%, negative = inhibition) at 1uM” value is 0.531%.
With `CCOC(=O)Cc1csc(NS(C)(=O)=O)n1`, the “hERG current change (%, negative = inhibition) at 1uM” value was determined as 12.1%.
As for `CC1(C)O[C@@H]2C[C@H]3[C@@H]4C[C@H](F)C5=CC(=O)CC[C@]5(C)[C@H]4[C@@H](O)C[C@]3(C)[C@]2(C(=O)CO)O1`, the “hERG current change (%, negative = inhibition) at 1uM” value came out at 18.1%.
Turning to `CSc1ccccc1C(=O)N(C)C(c1ccccc1)c1ccccc1`, the “hERG current change (%, negative = inhibition) at 1uM” value came out at 16.3%.
`COc1ccc(-c2c(C#Cc3ccccc3)c3ccccc3n2C)cc1`: the “hERG current change (%, negative = inhibition) at 1uM” value came to 18.5%.
On to `C/C(=N\NC(=O)CNC(=O)c1ccc2c(c1)OCO2)c1ccco1`, for which the “hERG current change (%, negative = inhibition) at 1uM” value turned out to be 8.28%.
Take `CN(C(=O)Cn1cnc2sccc2c1=O)C1CCCCC1`: the “hERG current change (%, negative = inhibition) at 1uM” value is reported as -1.32%.
In the case of `CN(C=O)CP(=O)(O)CN(C)C=O`, the “hERG current change (%, negative = inhibition) at 1uM” value is given as 3.64%.
With `O=C(N/N=C/c1ccc(OCC(=O)N2CCCC2)cc1)C(=O)NC1CC1`, the “hERG current change (%, negative = inhibition) at 1uM” value was 11.2%.
With `CCc1cc(-c2[nH]ncc2-c2ccc(OC)cc2)c(O)cc1O`, the “hERG current change (%, negative = inhibition) at 1uM” value was 14%.
In the case of `O=S(=O)(Nc1cccc2ccccc12)c1ccccc1`, the “hERG current change (%, negative = inhibition) at 1uM” value is 15.3%.
For the compound `COc1ccccc1-n1c(CNc2ccc(F)cc2)nnc1SCC(=O)Nc1cc(C)on1`, the “hERG current change (%, negative = inhibition) at 1uM” value is recorded as 3.58%.
For `Cc1cccc(NC(=S)NNC(=O)Cc2ccccc2)c1`, the “hERG current change (%, negative = inhibition) at 1uM” value is 10.9%.
`Cc1cccc(C)c1NC(=O)NC1(C(=O)N2CCOCC2)CCCCC1`: the “hERG current change (%, negative = inhibition) at 1uM” value is on record as -1.99%.
For `Cl.NC(N)=N/N=C/c1ccc(Br)cc1`, the “hERG current change (%, negative = inhibition) at 1uM” value stood at 7.07%.
For `Cc1ccc(S(=O)(=O)N2CCC(Oc3cccc(C(F)(F)F)c3)CC2)cc1`, the “hERG current change (%, negative = inhibition) at 1uM” value is reported as 13.2%.
